# Laboratory results published in PubChem BioAssay AID504466 (National Center for Advancing Translational Sciences (NCATS), 2011).
# In all, about 330,000 compounds went through this assay and about 4,200 (1.3%) were called active. The shares of active, inactive and inconclusive entries below differ from those in the screen. The call rests on the fitted dose curve; in most records, active means well fitted activation curve with a large enough effect; inconclusive means small, poorly fitted or top-dose-only effect; inactive means no such curve, though single readings can be large or run the other way. Where the call is inconclusive, the potency comes from a doubtful curve fit.
# Assay: qHTS screen for small molecules that induce genotoxicity in human embryonic kidney (HEK293T) cells expressing luciferase-tagged ELG1; further: nearly all actives have a fitted effect of over 60% in size; on activity change, positive = activation: % of control where 0% means no effect
# Settings: HEK293T ELG1-luciferase reporter, luminescence, 16 h; series mostly up to 46 µM
# Summary of the method: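 HEK293T cells expressing luciferase-tagged ELG1 were exposed to compound or DMSO vehicle for 16 hr at 37 °C and 5% CO2. Luciferase activity was then measured with ONE-Glo after 30 min at room temperature.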
# Potency means the concentration at half of the fitted maximal effect; tags describe the fitted curve by direction and shape.
Compound,Potency,"activity change, positive = activation"
CCOC(=O)N1CCN(C(=O)c2cccc(S(=O)(=O)Nc3ccc(Br)cc3)c2)CC1,inactive,–
CN(C)c1ccc(/C=N/NC(=O)c2ccc3c(c2)OCCO3)cc1,"inconclusive: 23.1 µM [activator, partial curve, poor fit]",–
CCc1ccc(N2CCN(S(=O)(=O)CC34CCC(CC3=O)C4(C)C)CC2)cc1 (stereo not drawn),inactive,–
O=C(Cc1cccs1)Nc1cccc(C(=O)Nc2ccco2)c1,inactive,–
O=C(Nc1ccc(Cl)c(S(=O)(=O)N2CCOCC2)c1)c1cc(-c2ccccn2)nc2ccccc12,inactive,–
Cc1ccc(C(=O)Nc2cccc(C(=O)N3CCN(C)CC3)c2)cc1,"inconclusive: 18.4 µM [activator, partial curve, poor fit]",–
O=C(C1CCCN(S(=O)(=O)c2ccccc2)C1)N1CCCc2ccccc21 (stereo not drawn),inactive,–
COc1ccc(NC(=O)c2csc3c2CCCC3)cc1,"inconclusive: 4.11 µM [activator, full curve, poor fit]",–
Cc1nn(-c2nc3ccccc3s2)c(N)c1-c1ccccc1,"inconclusive: 1.64 µM [activator, full curve]",–
CN(C)c1ccc(C(=O)NCC2CCCO2)cc1 (stereo not drawn),"inconclusive: 29.1 µM [activator, single point]",–
CC1=CN2C(=N)/C(=C/c3cn(CCCOc4ccccc4C)c4ccccc34)C(=O)N=C2S1,"inconclusive: 9.2 µM [activator, partial curve]",–
O=C(Nc1ccccc1C(=O)Nc1ccncc1)c1cccc([N+](=O)[O-])c1,"inconclusive: 18.3 µM [activator, single point]",–
CCS(=O)(=O)c1ccc(-c2csc(-c3ccc(Cl)cc3)n2)c(Cl)c1Cl,active: 18.4 µM,–
CC(=O)Nc1cccc(-c2csc(Nc3ncccn3)n2)c1,"inconclusive: 4.11 µM [activator, full curve]",–
COc1ccc(C(=O)NC2CC2)cc1OC1CCN(Cc2ccc(F)c(F)c2)CC1,inactive,–
O=C(Nc1cccc(F)c1)c1ccc2c(c1)OCO2,active: 5.17 µM,–
Cc1nn(Cc2ccc(F)cc2)c(Cl)c1/C=N/NC(=O)c1ccccc1,inactive,–
CCC1CCCCN1C(=O)c1ccc2nc(Cc3ccc(OC)cc3)oc2c1 (stereo not drawn),"inconclusive: 13 µM [activator, partial curve, poor fit]",–
c1ccc(CSc2nnc(-c3cccnc3)o2)cc1,"inconclusive: 25.9 µM [activator, partial curve, poor fit]",–
Cn1c(=NC(=O)CCS(=O)(=O)c2ccccc2)sc2cc(F)ccc21,"inconclusive: 20.6 µM [activator, single point]",–
COc1ccccc1C(=O)NC(=S)Nc1cccnc1Cl,active: 0.82 µM,–
COc1ccc(C(=O)/C=C2/C(=O)Nc3ccccc32)cc1,"inconclusive: 23.1 µM [activator, partial curve, poor fit]",–
COc1cc(NC(=S)NCCc2ccc(S(N)(=O)=O)cc2)c(OC)cc1Cl,inactive,–
O=C(Nc1ccc(OC(F)(F)F)cc1)c1cnc2n(c1=O)CCS2,active: 7.31 µM,–

Compound,Potency,"activity change, positive = activation"
Cc1ccc(C)c(N2CCN(CCCc3ccccc3)CC2)c1,inactive,–
O=C(CSc1ncn(-c2ccccc2)n1)Nc1nc2c(s1)CCCC2,"inconclusive: 29.1 µM [activator, partial curve, poor fit]",–
O=C(c1cc(-c2ccc(Cl)c(Cl)c2)on1)N1CCN(c2ccccc2)CC1,inactive,–
Cc1cccc(Oc2ncnc3oc(-c4ccccc4)cc23)c1C,"inconclusive: 29.1 µM [activator, single point]",–
Cc1ccc(-n2nnnc2SCC(=O)c2c(N)n(C3CC3)c(=O)[nH]c2=O)cc1C,inactive,–
O=C(Nc1ccc(S(=O)(=O)N2CCCCCC2)cc1)c1[nH]ncc1[N+](=O)[O-],"inconclusive: 20.6 µM [activator, partial curve, poor fit]",–
CCn1ncc(C(=O)Nc2ccccc2C)c1C,inactive,–
COc1ccc2c(c1)SCC(=O)N2C,"inconclusive: 18.4 µM [activator, single point]",–
CCOC(=O)c1c(C)oc2c1c(CN1CCN(C(=O)OCC)CC1)c(O)c1ccccc12,"inconclusive: 29.1 µM [activator, single point]",–
CCC(N=c1cc(-c2ccc(OC)cc2)oc2ccc(C)cc12)C(=O)O (stereo not drawn),"inconclusive: 1.16 µM [activator, full curve]",–
N#C/C(=C\c1ccc(Sc2nc3ccccc3[nH]2)o1)c1ccccc1,inactive,–
COc1ccc2oc(C(=O)Nc3nc(-c4ccccn4)cs3)c(C)c2c1,inactive,–
CC(Oc1ccccc1)C(=O)N=C1SC2CS(=O)(=O)CC2N1c1ccccc1 (stereo not drawn),–,inactive: -2.48% [at 9.26 µM]
O=C(c1ccc(-c2ccc(Cl)cc2)o1)N1CCN(c2ccc([N+](=O)[O-])cc2Cl)CC1,"inconclusive: 16.4 µM [activator, single point]",–
O=C(Nc1ccc(-c2nc3ccccc3[nH]2)cc1)c1c(F)c(F)c(F)c(F)c1F,inactive,–
CC(C)(C)OC(=O)C[C@@H]1C/C=C\C[C@@H](CC(=O)N[C@@H](CO)Cc2ccccc2)C(=O)NC[C@@H](c2ccccc2)OC1=O,inactive,–
O=C(Cn1nnc(-c2ccccc2F)n1)N1CCCCC1,"inconclusive: 9.2 µM [activator, single point]",–
COC(=O)C1CCN(C(=O)CSc2ccccc2)CC1,inactive,–
N#C/C(=C\c1ccc(N2CCOCC2)o1)C(=O)Nc1ccc(O)cc1,"inconclusive: 29.1 µM [activator, partial curve, poor fit]",–
COc1cc2c(C#Cc3cccnc3)c(-c3ccsc3)oc(=O)c2cc1OC,inactive,–
CCNC(=S)Nc1cccc(NC(=O)c2ccccc2O)c1,inactive,–
Cc1cccc(OCc2nc3ccccc3n2C)c1,"inconclusive: 10 µM [activator, single point]",–
Cn1c(CCN2CCN(c3ccccn3)CC2)nc2cc(NC(=O)COc3ccc(Cl)cc3)ccc21,inactive,–
CCOc1ccccc1N(CC(=O)Nc1ccc(OC)cc1OC)S(=O)(=O)c1ccccc1,inactive,–
